Experimental data taken from patent US20050249668A1, “Nir-fluorescent cyanine dyes, their synthesis and biological use” (priority 2002, published 2005).
Each block holds one compound with its values, some of them ahead of it.

Assays:
[1] = commercially available fluorochrome used as standard; cited from earlier work
[2] = Fluorescence emission maxima and quantum yields of the dyes (fluorophotometer); format: physicochemical
Method: (§1) About 20 mg of each fluorochrome dye was dissolved in 100 ml of deionized water. The absorbance was measured individually in three dilutions of the stock solution in deionized water or in 95% ethanol, using a Hitachi U-3000 spectrophotometer to determine the extinction coefficient. The fluorescence emission maxima and intensities of the dyes were obtained using a Hitachi F-4500 fluorophotometer, using dilute solutions in water and exciting at both the main absorption peak as well the short-wavelength shoulder of the main absorption peak. In the cases of NIR2, NIR4, NIR6, and NIR8, the quantum yields were calculated relative to a standard solution of the commercially available fluorochrome Cy5.5 (Amersham-Pharmacia, Piscataway, N.J.) with quantum yield of 0.29. The calculations for NIR1, NIR3, NIR5, and NIR7 were performed relative to a standard solution of another commercially available fluorochrome, Cy7 (Amersham-Pharmacia), with a quantum yield of 0.28.

[3] = Absorbance maxima and extinction coefficients of fluorochrome dyes (spectrophotometer); format: physicochemical
Method: All of the new NIR fluorochrome dyes were purified twice by preparative HPLC, using a preparative HPLC instrument (Rainin, Woburn. Mass.) with a C18-RP preparative column (Vydec, Hesperia, Calif.) (flow rate=6 ml/min; eluant A, water with 0.1% TFA; eluant B, 90% of acetonitrile and 10% of eluant A; starting at 90% A for 5 min and then a linear gradient over 40 min to 50% A). The instrument's dual HPLC detector was set at 240 and 360 nm. The dyes were collected, and solvent was removed using a speed-vac concentrator (Savant, Holbrook, N.Y.).
The K+ions of the potassium salts were replaced with H+ to generate the corresponding free acids by ion-exchange chromatography (cation-resin, Dowex-50, 8% cross-link, 100-200 mesh).
as §1

[4] = Hydrolysis of active ester in water by HPLC; format: physicochemical; conditions: 20 days in water at 4° C.
Method: The cyanine dyes NIR1-NIR4 were converted to reactive N-succinyl esters using diisopropylcarbodiimide (DIPCDI) and N-hydroxysuccinimide in the presence of N-methylmorpholine in dimethylformamide (DMF) according to the reaction scheme shown in FIG. 5A. The formation of active ester was not only confirmed by reverse phase HPLC, but also by reaction with benzylamine. […] Elution time for NIR2 and its active ester were 27.1 and 29.0 min, respectively. […] The active ester was remarkably stable in water. According to PLC analysis, less than 10% of the active ester was hydrolyzed over a period of 20 days in water at 4° C.

[5] = target: T1, FR (folate receptor) of KB cells (Homo sapiens, UniProt P15328); test: Competitive inhibition of 3H-folate binding in KB cells; conditions: 3H-folate 50 nM
T1 construct: endogenous in cells; host or cells: KB cells (human nasopharyngeal epidermoid carcinoma)
T1 sequence (P15328 25-234): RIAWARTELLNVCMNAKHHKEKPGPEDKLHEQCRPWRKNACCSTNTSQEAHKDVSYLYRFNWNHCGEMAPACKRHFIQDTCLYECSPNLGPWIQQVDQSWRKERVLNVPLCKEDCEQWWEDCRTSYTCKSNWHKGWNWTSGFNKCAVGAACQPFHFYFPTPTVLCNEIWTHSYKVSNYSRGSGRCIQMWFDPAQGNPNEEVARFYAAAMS
Method: To confirm receptor expression levels, cellular binding/internalization was determined using ^3H-folate. KB or HT1080 (10^6 cells) grown in 12-well plates were incubated at 37° C. for different times (1, 10, 30, 60, or 120 minutes) with 50 nM ^3H-folate (specific activity 34.5 Ci/mmol, American Radiolabeled Chemical Inc, St. Louis, Mo.). At the end of the incubation, cells were harvested using 0.1% Triton X-100 and the radioactivity (pmol/10^6 cells) was determined using a scintilltion counter.
The HT1080 and KB cell lines were first characterized in terms of their putative capability of ^3H-folate binding and uptake. KB and HT1080 tumor cells were incubated with ^3H-folate (50 nM) up to 120 minutes. Cellular binding and uptake was quantified by scintillation counting. […] At peak maximum 12 pmole of ^3H-folate /10^6 cells was observed under the chosen experimental conditions. […] Competition by the NMR2-folate probe was similar to that of unconjugated folic acid.

[6] = Tolerability of IV injection in tumor bearing mice; conditions: n=5, observed over 2 weeks
FR-positive KB tumors = test: In vivo NIRF imaging of KB solid tumors; design: species or system nude mice; conditions: 24 hour time point, 2 nmole/mouse
Method: To induce solid tumors, 10^6 KB or HT1080 cells were injected subcutaneously into mammary fat pad and the lower abdomen of 30 nude mice (average weight 20 g). Within 7-17 days after implantations, each mouse developed 3-4 tumors of 1-14 mm (mean 4.1 mm) in size. To study tumor heterogeneity, tumors with different sizes were included in the experiments. For dual-tumor experiments, six mice were injected with 10^6 of KB and HT1080 cells on the ipsilateral and contralateral side respectively.
Thirty-six mice bearing KB and/or HT1080 tumors (n=60 each) were divided into three groups so that each group had 12 mice collectively having a total of 40 tumors; five mice collectively having a total of 18 KB tumors, five mice collectively having a total of 18 HT1080 tumors, and two mice with both KB and HT1080 tumors. […] NIRF imaging was performed before and 1, 4, 24, 48 hours after tail vein injection of the probes. In two animals from each group, NIRF images were also acquired daily up to 7 days (168 hours) to study the in vivo kinetics of the probe.

[7] = water, relative to Cy5.5 (NIR2, NIR4) or Cy7 (NIR1, NIR3)

Compound: CCN1C(=CC=CC=CC=CC2=[N+](CCCCCC(=O)O)c3ccc(S(=O)(=O)O)cc3C2(C)C)C(C)(C)c2cc(S(=O)(=O)[O-])ccc21 [Cy7]
- quantum yield of standard solution [1]: 0.28

Compound: Nc1nc2ncc(CNc3ccc(C(=O)N[C@@H](CCC(=O)O)C(=O)O)cc3)nc2c(=O)[nH]1 [folic acid]
- bound 3H-folate in presence of competitor ([5]; competitor 50 nM (equimolar)): 4.97 pmole/10^6 cells
- decrease in bound 3H-folate ([5]; competitor 50 nM (equimolar)): 60%
- binding of 3H-folate, % of its initial value ([5]; competitor 5000 nM): 15%
- bound 3H-folate in presence of competitor ([5]; competitor 5000 nM): 1.86 pmole/10^6 cells

Compound: Cy5.5
- quantum yield of standard solution [1]: 0.29

Compound: CC[N+]1=C(C=CC=CC=C2N(CCCCS(=O)(=O)[O-])c3ccc(C(=O)O)cc3C2(C)C)C(C)(C)c2c1ccc1c(S(=O)(=O)[O-])cc(S(=O)(=O)[O-])cc21.[K+].[K+] [NIR2]
- Stokes shift of the fluorescence emission maxima [2]: 30 nm
- Stokes shift ([2]; solvent water): 22 nm
- λmax,em ([2]; solvent water): 684 nm
- QY [2, 7]: 0.34
- tolerability of IV injection [6]: tolerated the IV injection of the compounds without any signs of physiological changes
- tumoral signal versus background (FR-positive KB tumors): did not result in appreciably higher signal than background
- λmax,abs ([3]; solvent ethanol): 667 nm
- ε ([3]; solvent water): 250,000 L mol^−1cm^−1
- λmax,abs ([3]; solvent water): 662 nm

Compound: CC[N+]1=C(C=CC=CC=C2N(C)c3ccc(NC(=O)CI)cc3C2(C)C)C(C)(C)c2c1ccc1c(S(=O)(=O)[O-])cc(S(=O)(=O)[O-])cc21.[K+] [NIR10]
- QY ([2]; solvent H2O/CH3CN (1:1)): 0.24
- Stokes shift ([2]; solvent H2O/CH3CN (1:1)): 29 nm
- λmax,em ([2]; solvent H2O/CH3CN (1:1)): 695 nm
- ε ([3]; solvent H2O/CH3CN (1:1)): 218,000 L mol^−1cm^−1
- λmax,abs ([3]; solvent H2O/CH3CN (1:1)): 666 nm

Compound: CC[N+]1=C(C=CC=CC=CC=C2N(C)c3ccc(NC(=O)CI)cc3C2(C)C)C(C)(C)c2c1ccc1c(S(=O)(=O)[O-])cc(S(=O)(=O)[O-])cc21.[K+] [NIR9]
- QY ([2]; solvent H2O/CH3CN (1:1)): 0.11
- Stokes shift ([2]; solvent H2O/CH3CN (1:1)): 40 nm
- λmax,em ([2]; solvent H2O/CH3CN (1:1)): 803 nm
- ε ([3]; solvent H2O/CH3CN (1:1)): 224,000 L mol^−1cm^−1
- λmax,abs ([3]; solvent H2O/CH3CN (1:1)): 763 nm

Second part, the compound after the results:

- Stokes shift of the fluorescence emission maxima [2]: 20 nm
- Stokes shift ([2]; solvent water): 27 nm
- λmax,em ([2]; solvent water): 777 nm
- QY [2, 7]: 0.28
- λmax,abs ([3]; solvent ethanol): 756 nm
- ε ([3]; solvent water): 275,000 L mol^−1cm^−1
- λmax,abs ([3]; solvent water): 750 nm
Compound: CC1(C)C(=CC=CC=CC=CC2=[N+](CCCCS(=O)(=O)[O-])c3ccc(S(=O)(=O)[O-])cc3C2(C)C)N(CCCCS(=O)(=O)[O-])c2ccc(C(=O)O)cc21.[K+].[K+] [NIR3]

- QY ([2]; solvent H2O/CH3CN (2:1)): 0.24
- Stokes shift ([2]; solvent H2O/CH3CN (2:1)): 30 nm
- λmax,em ([2]; solvent H2O/CH3CN (2:1)): 697 nm
- ε ([3]; solvent H2O/CH3CN (2:1)): 245,000 L mol^−1cm^−1
- λmax,abs ([3]; solvent H2O/CH3CN (2:1)): 667 nm
Compound: CN1C(=CC=CC=CC2=[N+](CCCCS(=O)(=O)[O-])c3ccc4c(S(=O)(=O)[O-])cc(S(=O)(=O)[O-])cc4c3C2(C)C)C(C)(C)c2cc(NC(=O)CI)ccc21.[K+].[K+] [NIR12]

- active ester hydrolyzed [4]: less than 10%
Compound: CC[N+]1=C(C=CC=CC=C2N(CCCCS(=O)(=O)[O-])c3ccc(C(=O)ON4C(=O)CCC4=O)cc3C2(C)C)C(C)(C)c2c1ccc1c(S(=O)(=O)[O-])cc(S(=O)(=O)[O-])cc21.[K+].[K+] [NIR2 active ester]

- QY ([2]; solvent H2O/CH3CN (2:1)): 0.13
- Stokes shift ([2]; solvent H2O/CH3CN (2:1)): 39 nm
- λmax,em ([2]; solvent H2O/CH3CN (2:1)): 803 nm
- ε ([3]; solvent H2O/CH3CN (2:1)): 238,000 L mol^−1cm^−1
- λmax,abs ([3]; solvent H2O/CH3CN (2:1)): 764 nm
Compound: CN1C(=CC=CC=CC=CC2=[N+](CCCCS(=O)(=O)[O-])c3ccc4c(S(=O)(=O)[O-])cc(S(=O)(=O)[O-])cc4c3C2(C)C)C(C)(C)c2cc(NC(=O)CI)ccc21.[K+].[K+] [NIR11]

- Stokes shift of the fluorescence emission maxima [2]: 20 nm
- Stokes shift ([2]; solvent water): 21 nm
- λmax,em ([2]; solvent water): 671 nm
- QY [2, 7]: 0.43
- λmax,abs ([3]; solvent ethanol): 654 nm
- ε ([3]; solvent water): 260,000 L mol^−1cm^−1
- λmax,abs ([3]; solvent water): 650 nm
Compound: CC1(C)C(=C/C=C/C=C/C2=[N+](CCCCS(=O)(=O)[O-])c3ccc(S(=O)(=O)[O-])cc3C2(C)C)N(CCCCS(=O)(=O)[O-])c2ccc(C(=O)O)cc21.[K+].[K+] [NIR4]

- Stokes shift of the fluorescence emission maxima [2]: 30 nm
- Stokes shift ([2]; solvent water): 35 nm
- λmax,em ([2]; solvent water): 796 nm
- QY [2, 7]: 0.23
- λmax,abs ([3]; solvent ethanol): 769 nm
- ε ([3]; solvent water): 268,000 L mol^−1cm^−1
- λmax,abs ([3]; solvent water): 761 nm
Compound: CC[N+]1=C(C=CC=CC=CC=C2N(CCCCS(=O)(=O)[O-])c3ccc(C(=O)O)cc3C2(C)C)C(C)(C)c2c1ccc1c(S(=O)(=O)[O-])cc(S(=O)(=O)[O-])cc21.[K+].[K+] [NIR1]
